Out of some 150,000 compounds screened, about 190 (0.13%) were called active. Inconclusive results, whose numbers are uncertain, are shown with a selection of clear calls. Calls follow the shape of the dose curve; as a rule, active = well fitted inhibition curve with a large enough effect; inconclusive = small, poorly fitted or top-dose-only effect; inactive = flat fitted curve, though single readings scatter. Where the call is inconclusive, the potency comes from a doubtful curve fit.
Target: Polyunsaturated fatty acid lipoxygenase ALOX12 (Homo sapiens) (UniProt P18054)
Assay: qHTS Assay for Inhibitors of 12-hLO (12-human lipoxygenase); also: nearly all actives have a fitted effect of over 55% in size
Details: purified 12-hLO, xylenol orange hydroperoxide absorbance; series mostly up to 57.1 µM; activity change, negative = inhibition: at the top concentration
In short: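 Lipoxygenase turnover measured by absorbance at 573 and 405 nm after Fe-XO development. Human 12hLO 150 nM, arachidonate 40 uM, pH 7.0 Hepes buffer with detergent; 15 min compound preincubation, 30 min reaction.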
% is scaled to controls: 0 for no effect and ±100 for the full control effect; potency is read from the fitted curve at half-maximal effect; tags tell the direction and shape of the fitted curve.

Chain of UniProt P18054 (P18054 whole entry, looked up): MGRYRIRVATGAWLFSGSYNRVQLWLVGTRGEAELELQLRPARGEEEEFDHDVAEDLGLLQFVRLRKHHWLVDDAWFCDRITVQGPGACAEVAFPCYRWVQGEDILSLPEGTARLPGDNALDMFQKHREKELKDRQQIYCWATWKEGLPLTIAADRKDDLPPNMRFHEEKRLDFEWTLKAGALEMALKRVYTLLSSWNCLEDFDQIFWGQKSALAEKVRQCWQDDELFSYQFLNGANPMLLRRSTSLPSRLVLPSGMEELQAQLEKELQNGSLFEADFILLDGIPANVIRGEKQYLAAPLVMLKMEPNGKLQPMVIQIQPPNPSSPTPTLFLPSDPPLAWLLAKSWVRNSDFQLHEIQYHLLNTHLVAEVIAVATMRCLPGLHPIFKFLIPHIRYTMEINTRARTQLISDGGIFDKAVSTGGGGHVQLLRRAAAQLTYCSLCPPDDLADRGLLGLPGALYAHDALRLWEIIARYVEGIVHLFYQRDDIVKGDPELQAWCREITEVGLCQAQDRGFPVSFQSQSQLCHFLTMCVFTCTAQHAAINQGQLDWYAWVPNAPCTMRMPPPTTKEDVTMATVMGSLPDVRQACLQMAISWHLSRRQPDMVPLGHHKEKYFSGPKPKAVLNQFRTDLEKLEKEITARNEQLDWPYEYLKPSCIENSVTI

Structure (SMILES)	activity change, negative = inhibition	Potency
O=C(COc1ccc(S(=O)(=O)N2CCOCC2)cc1)Nc1ccc2c(c1)OCCO2	inactive: -4.33%	
COc1cccc(Cn2c(N)c(C#N)c3nc4ccccc4nc32)c1OC		inconclusive: 3.98 µM [inhibitor, full curve]
CCCCCCC(=O)Nc1nc(C)c(-c2csc(Nc3ccc(Cl)cc3)n2)s1		inconclusive: 12.6 µM [inhibitor, partial curve]
CCCCNS(=O)(=O)c1ccc2nc(SCC(=O)c3ccccc3OC)[nH]c2c1	inactive: -4.33%	
CCC(=C(CC)c1ccc(O)cc1)c1ccc(O)cc1	inactive: -13% [at 25.6 µM]	
Cc1ccccc1NC(=S)NCc1ccco1	inactive: 1.15%	
S=C(NCCc1ccccc1)Nc1ccc(Cl)cc1Cl		inconclusive: 25.1 µM [inhibitor, partial curve]
O=C(Cc1ccccc1)Nc1cccc(N2C(=O)C=CC2=O)c1	inactive: -12.2%	
COCCSc1ccccc1C(=O)NCc1ccco1		inconclusive: 20 µM [inhibitor, partial curve]
CN=c1nc(-c2ccccc2)n(-c2ccccc2)s1		inconclusive: 28.2 µM [inhibitor, single point]
CCCCOc1cccc(C(=O)NNC(=S)NC2CCCCC2)c1		inconclusive: 28.2 µM [inhibitor, single point]
COc1ccc(C(=O)N/N=C(\C)c2ccc3c(c2)C2C=CCC2C(c2ccccc2)N3)cc1 (stereo unspecified)		inconclusive: 25.1 µM [inhibitor, single point]
COc1ccc(S(=O)(=O)N(C(C)=O)c2ccc3oc(=O)sc3c2)cc1		active: 8.91 µM
O=C(O)CC1S/C(=N/N=C/c2ccc(-c3ccc(Cl)cc3[N+](=O)[O-])o2)NC1=O (stereo unspecified)		inconclusive: 7.94 µM [inhibitor, full curve, poor fit]
CSc1nc(N)nc(SCCS(=O)(=O)c2ccc(Cl)cc2)c1C#N	inactive: -11.5%	
N[C@@H](CC(=O)O)C(=O)O	inactive: -3.13%	
CC(=O)OCc1ccco1	inactive: 0.27%	
C[C@@H]1C(=O)O[C@H]2[C@@H](O)[C@@]34[C@H]5CC(C(C)(C)C)[C@]36[C@@H](OC(=O)[C@@H]6O)O[C@@]4(C(=O)O5)[C@@]12O (stereo partly specified)	inactive: -3.06%	
S=c1[nH]nc(COc2ccc3c(c2)OCO3)n1-c1ccccc1		inconclusive: 25.1 µM [inhibitor, single point]
CCNC(=S)N/N=C/c1ccc(-c2ccccc2)o1		inconclusive: 28.2 µM [inhibitor, single point]
Cc1ccc(C(=O)NCCSC2CCCCC2)cc1S(=O)(=O)Nc1ccccc1		inconclusive: 25.1 µM [inhibitor, partial curve]
CCn1nc(C)c(NS(=O)(=O)c2ccc(C)cc2)c1C	inactive: -0.914%	
O=[n+]1c2c(n([O-])c3cc(Br)ccc31)CCC2		inconclusive: 17.8 µM [inhibitor, partial curve]

Structure (SMILES)	activity change, negative = inhibition	Potency
Oc1cc(O)c2c(c1)O[C@H](c1ccc(O)c(O)c1)[C@@H](O)[C@@H]2c1c(O)cc(O)c2c1O[C@@H](c1ccc(O)c(O)c1)[C@H](O)C2	inactive: -14% [at 11.4 µM]	
CC1CC2=C(NC(=S)NC2c2ccc(F)cc2)/C(=C/c2ccc(F)cc2)C1 (stereo unspecified)		inconclusive: 15.8 µM [inhibitor, partial curve]
Cc1ccccc1C(=O)c1cccn1CC(=O)NCC1CCCO1 (stereo unspecified)	inactive: -6.69%	
Cc1cccc(C(=O)NC(=S)Nc2ccc(S(=O)(=O)N(C)c3ccccc3)cc2)c1		inconclusive: 31.6 µM [inhibitor, single point]
O=C(Nc1nc2c(s1)CCCC2)c1ccc2ncsc2c1		inconclusive: 22.4 µM [inhibitor, partial curve]
Cc1ccc(S(=O)(=O)Nc2ccc3c(c2)nc2n3CCN(Cc3ccccc3)C2)cc1		inconclusive: 15.8 µM [inhibitor, partial curve]
Cc1c(C(=O)Nc2ccc3c(c2)OCCO3)sc2nc(-c3ccccc3)cn12	inactive: 2.4%	
Cc1cccc(CNc2ncnc3ccc(-c4ccc5c(c4)OCO5)cc23)c1		inconclusive: 31.6 µM [inhibitor, single point]
CC(NC(=S)NCCc1ccccc1)C(c1cccs1)N1CCN(Cc2ccccc2)CC1 (stereo unspecified)		inconclusive: 20 µM [inhibitor, partial curve]
O=C(O)c1ccccc1C(=O)NNc1ccc(F)cc1		inconclusive: 28.2 µM [inhibitor, single point]
COc1ccc(C(C[N+](=O)[O-])c2c(-c3ccccc3)cc3ccccn23)cc1 (stereo unspecified)		inconclusive: 4.47 µM [inhibitor, full curve]
O=c1cc(O)nc(SCc2ccc(Cl)cc2)[nH]1	inactive: -19.9%	
Cc1ccc2c(c1)c1cccc3c1n2CCN3CCC(N)=O		inconclusive: 15.8 µM [inhibitor, partial curve]
CCn1c(=O)cc(SCC(=O)NCC2CCCO2)c2ccccc21 (stereo unspecified)	inactive: -0.0491%	
COc1cc(/C=C(/C(=O)c2cccs2)c2nc3ccccc3[nH]2)ccc1O		inconclusive: 12.6 µM [inhibitor, partial curve]
Cc1nc2sccn2c1P(c1c(C)nc2sccn12)c1c(C)nc2sccn12		inconclusive: 31.6 µM [inhibitor, single point]
Clc1ccc(C[n+]2csc3ccccc32)cc1		inconclusive: 35.5 µM [inhibitor, single point]
O=c1nc2s/c(=C\c3ccco3)c(=O)n2nc1Cc1ccc(F)cc1		inconclusive: 35.5 µM [inhibitor, single point]
Oc1ccc(N=C/C=C/c2ccc(Br)cc2)cc1-c1nc2ccccc2s1		inconclusive: 10 µM [inhibitor, partial curve]
COC(=O)C1=C(C)N(Cc2ccco2)C(=O)N[C@H]1c1ccc(Br)cc1	inactive: -0.106%	
Cc1cccc(N2CCN(C(=O)Cn3sc4nc(C)cc(C)c4c3=O)CC2C)c1 (stereo unspecified)		inconclusive: 4.47 µM [inhibitor, partial curve]
CC1CCC/C(=C\Nc2ccc(O)cc2)C1=O (stereo unspecified)		inconclusive: 14.1 µM [inhibitor, partial curve]
COc1ccc(CNC(=S)N/N=C/c2ccc(OC)c(OC)c2)cc1		inconclusive: 28.2 µM [inhibitor, partial curve]

— PubChem BioAssay AID1452 (National Center for Advancing Translational Sciences (NCATS), 2008)
